Test results taken from publication PMC12136788.
The other results are listed elsewhere or left out.

T1: UNK ZnF1-3 (human, UniProt Q9C0B0 31-174)
T1 sequence: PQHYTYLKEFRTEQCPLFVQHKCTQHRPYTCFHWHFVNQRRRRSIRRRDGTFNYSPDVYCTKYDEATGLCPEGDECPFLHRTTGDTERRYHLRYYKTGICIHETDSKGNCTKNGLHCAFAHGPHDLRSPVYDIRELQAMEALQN

B1: chr8:80577299:80577300:+_ENSG00000104435_ENST00000220876|hu_hu|FALSE|FALSE (ssRNA)
RNA: GGGAGUUCUACAGUCCGACGAUCGUAUUUUUUAACAAAAAUGUAAGUAUUUACAAAAUAAGAUCCAAGGUAUUUUUUAAACAUCAAGCAAAACAUUCUGCAAAGAGACCGCAUUGAUUUUUUUUAAUUUUUGAUUUUUUUUGUCAACAGAGGAUUGAGCAUCA
B2: chr16:94913618:94913619:+_ENSMUSG00000022897_ENSMUST00000122284|mus_hu|motif|central (ssRNA)
RNA: GGGAGUUCUACAGUCCGACGAUCGUCAUGUAAUGUGCAGGACCUGUAUUAGCAGAAAAUUGGUAUGUUGGAUGUCCAGCGGUGCCAGUCUCUUGGCGGGGAUUGGAGUAGACGGUCAAAUUAACGUCCAUAGCUCCAUUCUGUCAACAGAGGAUUGAGCAUCA
B3: chr2:32088997:32088998:+_ENSMUSG00000039262_ENSMUST00000036691|mus_mus|FALSE|FALSE (ssRNA)
RNA: GGGAGUUCUACAGUCCGACGAUCUCCCCCUUAAGGAAGCUUAGACCCAGAAGUGUUCUGUGAACUCUGAAUUUGAAAAUGCUAAACUUGGGAAUCAGACAAGGAAAGCAACUGUUAAGAGACCAGACUAAAUGCAGUCGGCAGCAACAGAGGAUUGAGCAUCA
B4: chr3:9412954:9412955:+_ENSG00000134077_ENST00000452837|hu_mus|hu_hu_hu_mus_False|78_108 (ssRNA)
RNA: GGGAGUUCUACAGUCCGACGAUCGGUUGAUACAUCCUCUUUGAUGGCUGGAUUUUCAUAAUAAUCUAAGAUAUGUGAAUCUGAAGUGCUGCUGGCAUGCUUUUUCUUACCAUCUUUCUCAUCUGCUUUGUCUCCUUGUCCACACAACAGAGGAUUGAGCAUCA
B5: chr5:74425352:74425353:-_ENSMUSG00000054814_ENSMUST00000068058|mus_mus|FALSE|FALSE (ssRNA)
RNA: GGGAGUUCUACAGUCCGACGAUCUUCCUGUUUCUUCUCUUCCUGCAGGAUGUCCGCAAUAGUGUUUAGCAAAUAAUUUAAGAACUCGUGAGCAUCCUGCUGCAUGUAGUUAUCAAAGAGAUCGUUCUCUUUCCUCAGCCUUGACAACAGAGGAUUGAGCAUCA
B6: chr1:113244022:113244023:-_ENSG00000155366_ENST00000369637|hu_hu|FALSE|FALSE (ssRNA)
RNA: GGGAGUUCUACAGUCCGACGAUCUAGGCGUGGCUCCCAGAGCGCUGGGAGGGAGGGCCCGUGCCACCACCUCGGGGCUAGAAAACAAUGCAGUCCUGGGCAGGAGGGAACUGAAAAUGGGAGCCUUCAGCAUGGAGCCCUCAGCAACAGAGGAUUGAGCAUCA
B7: chr7:102950833:102950834:+_ENSG00000105819_ENST00000453466|hu_hu|FALSE|FALSE (ssRNA)
RNA: GGGAGUUCUACAGUCCGACGAUCACCAUAUACAGUCCCCAUAAUCCUGUAUCUGUGUAGGAAGUGUUGAAAGACUGAAAGCUAUGGCAAAGAUUGCCAUGACAAGUGAGCUGGGCCAGCUUGCUAGAUAAAUUCAUUCCUCCCCAACAGAGGAUUGAGCAUCA
B8: chr8:103840089:103840090:-_ENSG00000155096_ENST00000347770|hu_mus|FALSE|FALSE (ssRNA)
RNA: GGGAGUUCUACAGUCCGACGAUCUCUCCAUAAUAAAUCUGAACUUCACAAUGAUUACCAAACACAUUUACUUAAAUUACUAAUUAAAUAACUAAAAAGUAUAUUGAGGCAAACCAAACUUAAACGGGUUAUAAAGAAACUAACCAACAGAGGAUUGAGCAUCA
B9: chr11:29607870:29607871:+_ENSMUSG00000020458_ENSMUST00000102843|mus_hu|FALSE|FALSE (ssRNA)
RNA: GGGAGUUCUACAGUCCGACGAUCGAAAUCCGGAGCUGGUUCAGCAGAAAGCUUUGUUUCUUUAAUUAAAUCACAUGCAAUAGAUAUAUAAGGAGCUUCUGUUUCUUGAAGAGCUGCAUUAAUAUUUUCAGGCUCUUUAAUUUCCAACAGAGGAUUGAGCAUCA
B10: chr1:28564431:28564432:+_ENSG00000130770_ENST00000335514|hu_hu|FALSE|FALSE (ssRNA)
RNA: GGGAGUUCUACAGUCCGACGAUCUUAAUCAUCAUGUUUUAGCAUUUUGAUCUUCUGCUUAUGGCGCUCAAUUUCUUUCUGCAGACGCUCAAUCUCCUUCUUAUGAUGAACGAUUUCUUCUUCAUGGUGUUUUUUCAAAGCUGCCAACAGAGGAUUGAGCAUCA
B11: chr1:33856384:33856385:-_ENSMUSG00000042197_ENSMUST00000044455|mus_mus|motif|central (ssRNA)
RNA: GGGAGUUCUACAGUCCGACGAUCUAGUGCUGUCUUGAAAAUACUUAAGAGCUGUACAAUAAUGUCAAAAUUAUUAAAGUGCGGAAUUUUCUGUGCUUUUUUGUUGCCGUUUAAUAUAAAGCGGGGAUUGAUACAAAUAAAUUACAACAGAGGAUUGAGCAUCA
B12: 46584523_46585552_994_CDS_ENSG00000123200_ENST00000242848|human|control|control (ssRNA)
RNA: GGGAGUUCUACAGUCCGACGAUCCCUAUCUUUCUUGCUAGCUGAAGACGACUUCGGGCUUGAUUUUCGCUUCGGAGAUUUGCUAGACUUUCUUAGAGAAGGUGACGGGGACAAUUUUGAUCUAACCACUUCUGGUGAAACCUCCAACAGAGGAUUGAGCAUCA
B13: chr5:146772872:146772873:-_ENSG00000113657_ENST00000343218|hu_hu|FALSE|FALSE (ssRNA)
RNA: GGGAGUUCUACAGUCCGACGAUCGCUCUGUCCCUGCCUGGCCUUCCCAACCCAGGAAAGAGAAGGAUUUGAAAGCAACACUAAGAAAGAGGCCUGAGCAAACACUGGCACAAUCAAGCAGGUGGAAGAAAUGGUUGGGUCUUGCAACAGAGGAUUGAGCAUCA
B14: chr12:56598494:56598495:-_ENSG00000181852_ENST00000345093|hu_hu|FALSE|FALSE (ssRNA)
RNA: GGGAGUUCUACAGUCCGACGAUCGUAUGAGCCUUGGUUAAGGCAGGUAGGGGAAAGGGGAGUGGAAGAAAUGUAGUAACCAGAGUAAGUAUAGCAGCGUUUUCAAAUUCCUGAGCACAAUGUCCCAGAGCUGGAACCCUACUCCAACAGAGGAUUGAGCAUCA
B15: chr5:150090687:150090688:-_ENSG00000132912_ENST00000447998|hu_mus|FALSE|FALSE (ssRNA)
RNA: GGGAGUUCUACAGUCCGACGAUCUUGUGUUGACACAGCUGUGGGUGGGGUCACUGUGUUUUAAGGAAGAAGAGGGCCAAAGCUCAGCUCCACGUGCUGCGUGAGCCAGAUGACCUCUGUGCCUUGGUCACCUUCUUCCACUGGCAACAGAGGAUUGAGCAUCA
B16: chr22:19452774:19452775:-_ENSG00000070010_ENST00000399523|hu_hu|hu_hu_hu_mus_False|58_108 (ssRNA)
RNA: GGGAGUUCUACAGUCCGACGAUCCUUUUCAUUAUAGUUGAUAGCAAUCACAUCUCCAGUCGUCAGACAGGCGAAGUUCCUAAGUGCAUUUUCUAAUACCGCUUUAGGGUUGGUAAUAUCCAGGAAGUCUGGGCUCUGAGGCUGCAACAGAGGAUUGAGCAUCA
B17: chr7:141445308:141445309:+_ENSG00000106028_ENST00000265304|hu_hu|hu_hu_hu_mus_False|8_88 (ssRNA)
RNA: GGGAGUUCUACAGUCCGACGAUCUAUGAUUGUUGUUGCUUGCCGCCUCACAUUAUUUUUAUCCAUGUACUCGCCAUAGUCCACUUUCCCUUCCACAAAUAUACGAGCCCCCUUUUUCACAUACUGAUAUGCCACGUCUCUGAGCAACAGAGGAUUGAGCAUCA
B18: chr9:120860063:120860064:+_ENSMUSG00000006932_ENSMUST00000007130|mus_hu|FALSE|FALSE (ssRNA)
RNA: GGGAGUUCUACAGUCCGACGAUCCUGCAUGCCCUCAUCUAAUGUCUCAGGGAACAUAGCAGCUCGUACCCUCUGAGCUCGAGUCAUUGCAUACUGUCCAUCAAUAUCAGCUACUUGUUCUUGAGUGAAGGACUGAGAAAAUCCCAACAGAGGAUUGAGCAUCA
B19: chr4:83347727:83347728:-_ENSG00000152795_ENST00000602300|hu_hu|motif|central (ssRNA)
RNA: GGGAGUUCUACAGUCCGACGAUCCCCAGUAUAAUCAUAUCCGCCAUAGCCACUAUAGUUUUGAUCACCACCAUAGGCACGGUUGUAAUUUCCAUAUCCUUGAUCAUAAUAGUUAUUAAAUCCUUGGUUCCAGUUUUGGCCCUGCAACAGAGGAUUGAGCAUCA
B20: chr5:29673426:29673427:-_ENSMUSG00000010721_ENSMUST00000055195|mus_hu|FALSE|FALSE (ssRNA)
RNA: GGGAGUUCUACAGUCCGACGAUCAUUGCUGAUGAUUGAGAAGGGUAAAAGCAAAACAGCCCCAGCUGACACUGCGAGAGUGAACGUGCUCAAAAACAACGAAAUCCUGUUGACGAUGGCAUCUUCAUCUUCUUGUUCAUCUGACAACAGAGGAUUGAGCAUCA
B21: chr1:46159212:46159213:+_ENSG00000159596_ENST00000372025|hu_mus|hu_hu_hu_mus_True|58_88 (ssRNA)
RNA: GGGAGUUCUACAGUCCGACGAUCUCUGAUCCCUCCCAAGAAAGCUAGGAAACUGGCUCCAUAAGCCAUCUGAGUGAAAGCUAAUAUGGGGAUAUAAGACUUUGUUAUUACCAUGAGAAGUGGGGGAGCAGUAAAGGGGAUUAACAACAGAGGAUUGAGCAUCA
B22: 13013063_13017349_405_CDS_ENSMUSG00000031442_ENSMUST00000123811|mouse|control|control (ssRNA)
RNA: GGGAGUUCUACAGUCCGACGAUCAGCCUUUGCCCUUCUCAGGGGGCUUUGGUAACGAUGAGCUCACGUAGCCUUCCAGGCUGAGCGGGUCCGUCUUCCGGUCUUCGAGCUUCUUGACAUUUCUUGUGUUCCCUUUUGUGGGACCAACAGAGGAUUGAGCAUCA

target: T1, UNK ZnF1-3; assay: nsRBNS (natural sequence RNA bind-n-seq); RBNS binding buffer (assumed for nsRBNS): 25 mM Tris pH 7.5, 150 mM KCl, 3 mM MgCl2, 0.01% Triton X-100, 500 ug/ml BSA, 20 U/ml SUPERase-In, 4 C; UNK is unkempt and MSI1 is Musashi-1; names of the RNAs are library labels; protein concentration not given here; high values mean tight binding

| Binder | binding signal [enrichment R] |
| --- | --- |
| B1 | 1.97 |
| B2 | 0.918 |
| B3 | 1.8 |
| B4 | 0.579 |
| B5 | 0.72 |
| B6 | 1.18 |
| B7 | 1.3 |
| B8 | 1.92 |
| B9 | 2.24 |
| B10 | 0.473 |
| B11 | 1.76 |
| B12 | 0.533 |
| B13 | 2.61 |
| B14 | 1.32 |
| B15 | 0.408 |
| B16 | 0.834 |
| B17 | 0.652 |
| B18 | 0.958 |
| B19 | 0.778 |
| B20 | 0.915 |
| B21 | 1.22 |
| B22 | 0.656 |
